# Test results from the supplement of paper PMC8728848.
# This is one part of the list.
# B1: Cp ZmpB (Clostridium perfringens), Q0TR08 (protein)
# chain: MNKRKIAAIILATMITNLSATTIDVLAQELNTKNNSKVEVSHDDESHQARVSKFDLYNSDKLDAYNQEFQVSRSNIKSINNNGGKYNSSTIDKAIDGNLETHWETGKPNDANFTNEVVVTFNEITNIDRIVYSARRDSARGKGFAKEFEIYASLKDEGDDFNLVSSGEYTESTRDLVEIKFNPTDFKRLKFKFKKADQNWASAAEFMFYKEDKLNEKFNGLFTDSSMNKVSEEFNTLEKLNAFENELKDHPIYDLYKEGLNNARAILTETSENPTKATLGQITYNLNDDYNNQYRMPYKNIKAIKNNGRHYAAQNIEKAIDNDVNTYWETGTLNSSSFNNEVEVEFNDLVTLDRIVYGSRQSDLKGFAEEVYIYASRTSKGDTYKLVATGAHEATKGLVEAKFEPTEFKRVKFKFKKSKQNSATLNELMFYKPDEVYSSIPKLFTDGTMSELSEEFNSLEKINAFKEKAKNHPLYNDFNETIELAESLISNPRKEDVLELEMRGDSISEAKKRKVWNFQDWQITGLSARAGDKITVYVDVAEGDPTPTLLYKQSLTQHGGATSFQLKPGKNEITIPEINYESNGIPKDVIQGGDLFFTNYKSDSQKRAPKVRIEGASKYPVFILGKSDENEVMKELEAYVEKIKAEPKTTPNIFAVSSNKSLEFVQATYALDWYKKNNKTPKYTAEQWDQYIADAMGFWGFDNSKDVNSDFNFRIMPMVKNLSGGAFMNAGNGVIGIRPGNQDAILAANKGWGVAHELGHNFDTGGRTIVEVTNNMMPLFFESKYKTKTRITDQNIWENNTYPKVGLDDYSNNELYNKADSTHLAQLAPLWQLYLYDNTFYGKFERQFRERDFGNKNREDIYKSWVVAASDAMELDLTEFFARHGIRVDDKVKEDLAKYPKPDKKIYYLNDLAMNYKGDGFTENAKVSVSTSGSNGNIKLSFSVDDENKDNILGYEIRRDGKYVGFTSNDSFVDTKSNLDEDGVYVVTPYDRKLNTLNPIEVNALQPTLSVNPVITLALGEEFNEEEYIVAKDIKGNSLSESVKVKSSNVNTSKVGEYEVLYSLEDSKGNEYTKTSKVNVVSRKEYMSDLTPKQSSNGWGTVRKDKSISGGVIGLTRDGDFVDYNKGLGLHSNAEYVYDLEGKDYDYFESYVGVDKAMSSRPASSVIFKVLVDGEEKFNSGVMRSTTPQKYVKVDVKNAKELKLIVNDAGDGDSSDHASFGDAKLATLSSKPIIKGENLAYSMDEKVDLMKGITATDIEDGNITSKVQIKSSDFVEGKSGIFTVVYSVTDSDGLTSECSRTIAVTDKETQLSDLNWKSATIGSGSVRKDRAVSGNQIRLLNEDNSVETFAKGIGTHSYSEIVYNSEGYDIFDTWVGIDRHVADKKVSSVKFKVYVDGELKAETDVMRIDTPKKRLVVDVRNSKEIKLVVDVADNGNNWDHADWADAKFRNLAEYDASELNKAIEEAKKLDLNNYTEESSEALKNAISKGEEALLSKDKETINSALEELNKEMNSLVKVDLNAVINIPDKYLLKSIQNQLNKTGDITLGDMYSLTTLTLSGVEDLTGLENAKNLETLNMDYNEVKDLRPLSKLKKLNTLNAQEQFIAAGELKPSNGKVIGDSKVYNREGKNVAKTIRVVDKNGNTILEQDAKDEFTINTKDLSSGLYGVHVLFEDEGFSGVMFYLFNV
# Tests used:
# Test in all cases: glycan array binding signal (z-score within array); higher = stronger binding
# Details in all cases: glycan notation: IUPAC condensed, linker removed
# [1] = target: Fuc(a1-2)[Gal(a1-3)]Gal(b1-4)GlcNAc(b1-2)Man(a1-3)[Fuc(a1-2)[Gal(a1-3)]Gal(b1-4)GlcNAc(b1-2)Man(a1-6)]Man(b1-4)GlcNAc(b1-4)GlcNAc
# Method in brief: (§1)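 From the Consortium for Functional Glycomics database, 3228 arrays were curated, keeping only those whose protein sequence was available. Binding is given as a within-array Z-score averaged across arrays sharing a protein sequence and across linkers. Negative Z-scores can be read as non-binding.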
# [2] = target: Fuc(a1-2)[Gal(a1-3)]Gal(b1-4)GlcNAc(b1-2)Man(a1-3)[Fuc(a1-2)[Gal(a1-3)]Gal(b1-4)GlcNAc(b1-2)Man(a1-6)]Man(b1-4)GlcNAc(b1-4)[Fuc(a1-6)]GlcNAc
# Method in brief: as §1
# [3] = target: Fuc(a1-2)[Gal(a1-3)]Gal(b1-4)GlcNAc(b1-3)GalNAc
# Method in brief: as §1
# [4] = target: Fuc(a1-2)[Gal(a1-3)]Gal(b1-4)GlcNAc(b1-3)[Fuc(a1-2)[Gal(a1-3)]Gal(b1-4)GlcNAc(b1-6)]GalNAc
# Method in brief: as §1
# [5] = target: Fuc(a1-2)[Gal(a1-3)]Gal(b1-4)GlcNAc(b1-6)GalNAc
# Method in brief: as §1
# [6] = target: Fuc(a1-2)[Gal(a1-3)]Gal(b1-4)[Fuc(a1-3)]Glc
# Method in brief: as §1
# [7] = target: Fuc(a1-2)[Gal(a1-3)]Gal(b1-4)[Fuc(a1-3)]GlcNAc
# Method in brief: as §1
# [8] = target: Fuc(a1-2)[Gal(a1-3)]Gal(b1-4)[Fuc(a1-3)]GlcNAc(b1-3)GalNAc
# Method in brief: as §1
# [9] = target: Fuc(a1-2)[Gal(a1-4)]Gal(b1-4)GlcNAc
# Method in brief: as §1
# [10] = target: Fuc(a1-2)[GalNAc(a1-3)]Gal
# Method in brief: as §1
# [11] = target: Fuc(a1-2)[GalNAc(a1-3)]Gal(b1-3)GalNAc(a1-3)[Fuc(a1-2)]Gal(b1-4)GlcNAc
# Method in brief: as §1
# [12] = target: Fuc(a1-2)[GalNAc(a1-3)]Gal(b1-3)GalNAc(b1-3)Gal(a1-4)Gal(b1-4)Glc
# Method in brief: as §1
# [13] = target: Fuc(a1-2)[GalNAc(a1-3)]Gal(b1-3)GlcNAc
# Method in brief: as §1
# [14] = target: Fuc(a1-2)[GalNAc(a1-3)]Gal(b1-3)GlcNAc(b1-2)Man(a1-3)[Fuc(a1-2)[GalNAc(a1-3)]Gal(b1-3)GlcNAc(b1-2)Man(a1-6)]Man(b1-4)GlcNAc(b1-4)GlcNAc
# Method in brief: as §1
# [15] = target: Fuc(a1-2)[GalNAc(a1-3)]Gal(b1-3)GlcNAc(b1-2)Man(a1-3)[Fuc(a1-2)[GalNAc(a1-3)]Gal(b1-3)GlcNAc(b1-2)Man(a1-6)]Man(b1-4)GlcNAc(b1-4)[Fuc(a1-6)]GlcNAc
# Method in brief: as §1
# [16] = target: Fuc(a1-2)[GalNAc(a1-3)]Gal(b1-3)GlcNAc(b1-3)GalNAc
# Method in brief: as §1
# [17] = target: Fuc(a1-2)[GalNAc(a1-3)]Gal(b1-3)GlcNAc(b1-6)GalNAc
# Method in brief: as §1
# [18] = target: Fuc(a1-2)[GalNAc(a1-3)]Gal(b1-4)Glc
# Method in brief: as §1
# [19] = target: Fuc(a1-2)[GalNAc(a1-3)]Gal(b1-4)GlcNAc
# Method in brief: as §1
# [20] = target: Fuc(a1-2)[GalNAc(a1-3)]Gal(b1-4)GlcNAc(b1-2)Man
# Method in brief: as §1
# [21] = target: Fuc(a1-2)[GalNAc(a1-3)]Gal(b1-4)GlcNAc(b1-2)Man(a1-3)[Fuc(a1-2)[GalNAc(a1-3)]Gal(b1-4)GlcNAc(b1-2)Man(a1-6)]Man(b1-4)GlcNAc(b1-4)GlcNAc
# Method in brief: as §1
# [22] = target: Fuc(a1-2)[GalNAc(a1-3)]Gal(b1-4)GlcNAc(b1-2)Man(a1-3)[Fuc(a1-2)[GalNAc(a1-3)]Gal(b1-4)GlcNAc(b1-2)Man(a1-6)]Man(b1-4)GlcNAc(b1-4)[Fuc(a1-6)]GlcNAc
# Method in brief: as §1
# [23] = target: Fuc(a1-2)[GalNAc(a1-3)]Gal(b1-4)GlcNAc(b1-3)Gal(b1-4)GlcNAc
# Method in brief: as §1
# [24] = target: Fuc(a1-2)[GalNAc(a1-3)]Gal(b1-4)GlcNAc(b1-3)Gal(b1-4)GlcNAc(b1-3)Gal(b1-4)GlcNAc
# Method in brief: as §1
# [25] = target: Fuc(a1-2)[GalNAc(a1-3)]Gal(b1-4)GlcNAc(b1-3)GalNAc
# Method in brief: as §1
# [26] = target: Fuc(a1-2)[GalNAc(a1-3)]Gal(b1-4)GlcNAc(b1-3)[Fuc(a1-2)[GalNAc(a1-3)]Gal(b1-4)GlcNAc(b1-6)]GalNAc
# Method in brief: as §1
# [27] = target: Fuc(a1-2)[GalNAc(a1-3)]Gal(b1-4)GlcNAc(b1-6)GalNAc
# Method in brief: as §1
# [28] = target: Fuc(a1-2)[GalNAc(a1-3)]Gal(b1-4)[Fuc(a1-3)]GlcNAc
# Method in brief: as §1
# [29] = target: Fuc(a1-2)[GalNAc(a1-3)]Gal(b1-4)[Fuc(a1-3)]GlcNAc(b1-3)GalNAc
# Method in brief: as §1
# [30] = target: Fuc(a1-2)[GalNAc(a1-4)]Gal(b1-4)GlcNAc
# Method in brief: as §1
binder,measurement,setting,value
B1,glycan array binding signal (z-score),[1],-0.091
same,glycan array binding signal (z-score),[2],-0.06
same,glycan array binding signal (z-score),[3],0.312
same,glycan array binding signal (z-score),[4],0.081
same,glycan array binding signal (z-score),[5],-0.395
same,glycan array binding signal (z-score),[6],-0.23
same,glycan array binding signal (z-score),[7],0.005
same,glycan array binding signal (z-score),[8],-0.075
same,glycan array binding signal (z-score),[9],-0.277
same,glycan array binding signal (z-score),[10],-0.12
same,glycan array binding signal (z-score),[11],0.06
same,glycan array binding signal (z-score),[12],-0.231
same,glycan array binding signal (z-score),[13],0.286
same,glycan array binding signal (z-score),[14],0.371
same,glycan array binding signal (z-score),[15],-0.379
same,glycan array binding signal (z-score),[16],0.006
same,glycan array binding signal (z-score),[17],-0.28
same,glycan array binding signal (z-score),[18],0.149
same,glycan array binding signal (z-score),[19],-0.068
same,glycan array binding signal (z-score),[20],-0.362
same,glycan array binding signal (z-score),[21],-0.201
same,glycan array binding signal (z-score),[22],-0.353
same,glycan array binding signal (z-score),[23],-0.447
same,glycan array binding signal (z-score),[24],-0.359
same,glycan array binding signal (z-score),[25],-0.003
same,glycan array binding signal (z-score),[26],0.161
same,glycan array binding signal (z-score),[27],-0.028
same,glycan array binding signal (z-score),[28],-0.371
same,glycan array binding signal (z-score),[29],-0.073
same,glycan array binding signal (z-score),[30],0.298
